The labels stand for the following.
B1: ACUAGUU (DNA:RNA)
RNA: GGGAGACCGGAAUUCAGAUUGUCCACUAGUUUUAAAUCCCGUCGUAGCCACCA
DNA 1: CAATCTGAATTCCGGTCTCCC
DNA 2: TGGTGGCTACGACGGGATT
B2: CCGCCGU (DNA:RNA)
RNA: B1 RNA with A25C, U27G, A28C, G29C, U30G
DNA 1: CAATCTGAATTCCGGTCTCCC
DNA 2: TGGTGGCTACGACGGGATT
B3: UUACAGU (DNA:RNA)
RNA: B1 RNA with A25U, C26U, U27A, A28C, G29A, U30G
DNA 1: CAATCTGAATTCCGGTCTCCC
DNA 2: TGGTGGCTACGACGGGATT
B4: AGCGCAG (DNA:RNA)
RNA: B1 RNA with C26G, U27C, A28G, G29C, U30A, U31G
DNA 1: CAATCTGAATTCCGGTCTCCC
DNA 2: TGGTGGCTACGACGGGATT
B5: CGCGGAC (DNA:RNA)
RNA: B1 RNA with A25C, C26G, U27C, A28G, U30A, U31C
DNA 1: CAATCTGAATTCCGGTCTCCC
DNA 2: TGGTGGCTACGACGGGATT
B6: GUAUCCC (DNA:RNA)
RNA: GGGAGACCGGAAUUCAGAUUGUCCGUAUCCCUUAAAUCCCGUCGUAGCCACCA
DNA 1: CAATCTGAATTCCGGTCTCCC
DNA 2: TGGTGGCTACGACGGGATT
B7: CACCACG (DNA:RNA)
RNA: B6 RNA with G25C, U26A, A27C, U28C, C29A, C31G
DNA 1: CAATCTGAATTCCGGTCTCCC
DNA 2: TGGTGGCTACGACGGGATT
B8: ACUGCGG (DNA:RNA)
RNA: B1 RNA with A28G, G29C, U30G, U31G
DNA 1: CAATCTGAATTCCGGTCTCCC
DNA 2: TGGTGGCTACGACGGGATT
B9: GCGACCG (DNA:RNA)
RNA: B6 RNA with U26C, A27G, U28A, C31G
DNA 1: CAATCTGAATTCCGGTCTCCC
DNA 2: TGGTGGCTACGACGGGATT
B10: GUAGAAA (DNA:RNA)
RNA: B6 RNA with U28G, C29A, C30A, C31A
DNA 1: CAATCTGAATTCCGGTCTCCC
DNA 2: TGGTGGCTACGACGGGATT
B11: AUACAUG (DNA:RNA)
RNA: B1 RNA with C26U, U27A, A28C, G29A, U31G
DNA 1: CAATCTGAATTCCGGTCTCCC
DNA 2: TGGTGGCTACGACGGGATT
B12: CGCUAAA (DNA:RNA)
RNA: B6 RNA with G25C, U26G, A27C, C29A, C30A, C31A
DNA 1: CAATCTGAATTCCGGTCTCCC
DNA 2: TGGTGGCTACGACGGGATT
B13: GACUUAU (DNA:RNA)
RNA: B6 RNA with U26A, A27C, C29U, C30A, C31U
DNA 1: CAATCTGAATTCCGGTCTCCC
DNA 2: TGGTGGCTACGACGGGATT
B14: AUCGGAC (DNA:RNA)
RNA: B1 RNA with C26U, U27C, A28G, U30A, U31C
DNA 1: CAATCTGAATTCCGGTCTCCC
DNA 2: TGGTGGCTACGACGGGATT
B15: CCCAACU (DNA:RNA)
RNA: B1 RNA with A25C, U27C, G29A, U30C
DNA 1: CAATCTGAATTCCGGTCTCCC
DNA 2: TGGTGGCTACGACGGGATT
B16: CGGCACG (DNA:RNA)
RNA: B6 RNA with G25C, U26G, A27G, U28C, C29A, C31G
DNA 1: CAATCTGAATTCCGGTCTCCC
DNA 2: TGGTGGCTACGACGGGATT
B17: UGCAUCU (DNA:RNA)
RNA: B1 RNA with A25U, C26G, U27C, G29U, U30C
DNA 1: CAATCTGAATTCCGGTCTCCC
DNA 2: TGGTGGCTACGACGGGATT
B18: GGGGCAC (DNA:RNA)
RNA: B6 RNA with U26G, A27G, U28G, C30A
DNA 1: CAATCTGAATTCCGGTCTCCC
DNA 2: TGGTGGCTACGACGGGATT
B19: CCAGGCU (DNA:RNA)
RNA: B1 RNA with A25C, U27A, A28G, U30C
DNA 1: CAATCTGAATTCCGGTCTCCC
DNA 2: TGGTGGCTACGACGGGATT
B20: CCGUUUA (DNA:RNA)
RNA: B1 RNA with A25C, U27G, A28U, G29U, U31A
DNA 1: CAATCTGAATTCCGGTCTCCC
DNA 2: TGGTGGCTACGACGGGATT
B21: GUGGAAA (DNA:RNA)
RNA: B6 RNA with A27G, U28G, C29A, C30A, C31A
DNA 1: CAATCTGAATTCCGGTCTCCC
DNA 2: TGGTGGCTACGACGGGATT
B22: ACCGCCU (DNA:RNA)
RNA: B1 RNA with U27C, A28G, G29C, U30C
DNA 1: CAATCTGAATTCCGGTCTCCC
DNA 2: TGGTGGCTACGACGGGATT
B23: UUGCCAC (DNA:RNA)
RNA: B6 RNA with G25U, A27G, U28C, C30A
DNA 1: CAATCTGAATTCCGGTCTCCC
DNA 2: TGGTGGCTACGACGGGATT
B24: GAACAAC (DNA:RNA)
RNA: B6 RNA with U26A, U28C, C29A, C30A
DNA 1: CAATCTGAATTCCGGTCTCCC
DNA 2: TGGTGGCTACGACGGGATT
B25: CUUUUAC (DNA:RNA)
RNA: B6 RNA with G25C, A27U, C29U, C30A
DNA 1: CAATCTGAATTCCGGTCTCCC
DNA 2: TGGTGGCTACGACGGGATT
B26: CUUCACA (DNA:RNA)
RNA: B6 RNA with G25C, A27U, U28C, C29A, C31A
DNA 1: CAATCTGAATTCCGGTCTCCC
DNA 2: TGGTGGCTACGACGGGATT
B27: CAUUGGU (DNA:RNA)
RNA: B1 RNA with A25C, C26A, A28U, U30G
DNA 1: CAATCTGAATTCCGGTCTCCC
DNA 2: TGGTGGCTACGACGGGATT
B28: CACCCAU (DNA:RNA)
RNA: B1 RNA with A25C, C26A, U27C, A28C, G29C, U30A
DNA 1: CAATCTGAATTCCGGTCTCCC
DNA 2: TGGTGGCTACGACGGGATT
B29: GACUCGU (DNA:RNA)
RNA: B6 RNA with U26A, A27C, C30G, C31U
DNA 1: CAATCTGAATTCCGGTCTCCC
DNA 2: TGGTGGCTACGACGGGATT
B30: GGGCGAA (DNA:RNA)
RNA: B1 RNA with A25G, C26G, U27G, A28C, U30A, U31A
DNA 1: CAATCTGAATTCCGGTCTCCC
DNA 2: TGGTGGCTACGACGGGATT
B31: GCAGCUC (DNA:RNA)
RNA: B6 RNA with U26C, U28G, C30U
DNA 1: CAATCTGAATTCCGGTCTCCC
DNA 2: TGGTGGCTACGACGGGATT

Consider 31 molecules from paper PMC9911399, “Two distinct binding modes provide the RNA-binding protein RbFox with extraordinary sequence specificity”.

Where a chain is given by its changes, count along the chain named. The list shows a part of the results.

This assay has as its target T1, RBFOX1 RRM RbFoxmut (Fox-RRM*) (Homo sapiens, UniProt Q9NWB1 109-208, R118D;E147R;N151S;E152T).
T1 sequence: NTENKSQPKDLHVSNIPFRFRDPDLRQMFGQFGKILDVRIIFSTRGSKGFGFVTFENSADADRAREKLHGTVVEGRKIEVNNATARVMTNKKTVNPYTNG
Briefly: EMSA; HiTS-Eq, 1 nM pool, 10 min; buffer printed only for the single-RNA assays: 10 mM Tris pH 7.5, 150 mM NaCl, 3.4 mM EDTA, 0.001% NP-40, 30 C. The note with it: tags: His6 N-terminal (pET28a); label: 5' 32P. A digest of the protocol:
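Purified RbFox RRM, wild type or mutant, was incubated for 10 min in 50 µL with 1 nM of a 5′-radiolabelled RNA pool carrying 7 randomized nucleotides, whose flanks were annealed to DNA oligonucleotides, over a series of increasing protein concentrations. Unbound RNA was resolved on 8% native PAGE, cut out, reverse-transcribed, barcoded by PCR and sequenced on an Illumina HiSeq 2500. Relative association constants were derived from changes in read counts for each RNA species versus the control reaction and normalised to the cognate motif.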
As to B1, the binding signal was 0.0878 KA relative to UGCAUGU.

For the molecule B2, the binding signal is 0.133 KA relative to UGCAUGU. The figure for B3 is 0.0589 KA relative to UGCAUGU; for B4 it is 0.0911 KA relative to UGCAUGU; for B5 it is 0.0688 KA relative to UGCAUGU.

Turning to B6, the binding signal is 0.0921 KA relative to UGCAUGU. The figure for B7 is 0.125 KA relative to UGCAUGU. The figure for B8 is 0.0963 KA relative to UGCAUGU. As for B9, the binding signal was 0.111 KA relative to UGCAUGU.

On to B10, for which the binding signal is 0.105 KA relative to UGCAUGU. B11: the binding signal is 0.118 KA relative to UGCAUGU. The figure for B12 is 0.0826 KA relative to UGCAUGU; for B13 it is 0.124 KA relative to UGCAUGU.

B14: the binding signal is 0.0703 KA relative to UGCAUGU.

On to B15, for which the binding signal is 0.0528 KA relative to UGCAUGU.

Turning to B16, the binding signal is 0.264 KA relative to UGCAUGU. The value for B17 was 0.727 KA relative to UGCAUGU.

Turning to B18, the binding signal is 0.0742 KA relative to UGCAUGU. The value for B19 was 0.0795 KA relative to UGCAUGU; that for B20 was 0.0885 KA relative to UGCAUGU; that for B21 was 0.112 KA relative to UGCAUGU. The value for B22 was 0.0816 KA relative to UGCAUGU; that for B23 was 0.0642 KA relative to UGCAUGU; that for B24 was 0.0447 KA relative to UGCAUGU. Take B25: the binding signal is 0.0922 KA relative to UGCAUGU. On to B26, for which the binding signal is 0.0931 KA relative to UGCAUGU. The value for B27 was 0.154 KA relative to UGCAUGU.

Regarding B28, the binding signal was 0.103 KA relative to UGCAUGU. Take B29: the binding signal is 0.133 KA relative to UGCAUGU. The figure for B30 is 0.103 KA relative to UGCAUGU; for B31 it is 0.0411 KA relative to UGCAUGU.
